The values that follow come from article PMC9911399, “Two distinct binding modes provide the RNA-binding protein RbFox with extraordinary sequence specificity”.

Positions count from the first letter of the chain named. The list shows a part of the results.

Sequences and labels used below:
T1: RBFOX1 RRM RbFoxmut (Fox-RRM*) (Homo sapiens, UniProt Q9NWB1 109-208, R118D;E147R;N151S;E152T)
T1 sequence: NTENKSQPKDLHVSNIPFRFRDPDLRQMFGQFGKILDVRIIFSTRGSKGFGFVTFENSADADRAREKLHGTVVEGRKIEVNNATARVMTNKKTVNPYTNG

B1: AUUGACU (DNA:RNA)
RNA: GGGAGACCGGAAUUCAGAUUGUCCAUUGACUUUAAAUCCCGUCGUAGCCACCA
DNA 1: CAATCTGAATTCCGGTCTCCC
DNA 2: TGGTGGCTACGACGGGATT
B2: UCCCGGC (DNA:RNA)
RNA: GGGAGACCGGAAUUCAGAUUGUCCUCCCGGCUUAAAUCCCGUCGUAGCCACCA
DNA 1: CAATCTGAATTCCGGTCTCCC
DNA 2: TGGTGGCTACGACGGGATT
B3: GGCAGGA (DNA:RNA)
RNA: B2 RNA with U25G, C26G, C28A, C31A
DNA 1: CAATCTGAATTCCGGTCTCCC
DNA 2: TGGTGGCTACGACGGGATT
B4: GAAUGUC (DNA:RNA)
RNA: B2 RNA with U25G, C26A, C27A, C28U, G30U
DNA 1: CAATCTGAATTCCGGTCTCCC
DNA 2: TGGTGGCTACGACGGGATT
B5: CACUCGG (DNA:RNA)
RNA: B2 RNA with U25C, C26A, C28U, G29C, C31G
DNA 1: CAATCTGAATTCCGGTCTCCC
DNA 2: TGGTGGCTACGACGGGATT
B6: GCGUUGG (DNA:RNA)
RNA: B2 RNA with U25G, C27G, C28U, G29U, C31G
DNA 1: CAATCTGAATTCCGGTCTCCC
DNA 2: TGGTGGCTACGACGGGATT
B7: GCAUUCA (DNA:RNA)
RNA: B1 RNA with A25G, U26C, U27A, G28U, A29U, U31A
DNA 1: CAATCTGAATTCCGGTCTCCC
DNA 2: TGGTGGCTACGACGGGATT
B8: CCCGAUU (DNA:RNA)
RNA: B1 RNA with A25C, U26C, U27C, C30U
DNA 1: CAATCTGAATTCCGGTCTCCC
DNA 2: TGGTGGCTACGACGGGATT
B9: GAUUCCC (DNA:RNA)
RNA: B1 RNA with A25G, U26A, G28U, A29C, U31C
DNA 1: CAATCTGAATTCCGGTCTCCC
DNA 2: TGGTGGCTACGACGGGATT
B10: UUGAGAU (DNA:RNA)
RNA: B1 RNA with A25U, U27G, G28A, A29G, C30A
DNA 1: CAATCTGAATTCCGGTCTCCC
DNA 2: TGGTGGCTACGACGGGATT
B11: GGAGGCA (DNA:RNA)
RNA: B1 RNA with A25G, U26G, U27A, A29G, U31A
DNA 1: CAATCTGAATTCCGGTCTCCC
DNA 2: TGGTGGCTACGACGGGATT
B12: AGGCAGA (DNA:RNA)
RNA: B1 RNA with U26G, U27G, G28C, C30G, U31A
DNA 1: CAATCTGAATTCCGGTCTCCC
DNA 2: TGGTGGCTACGACGGGATT
B13: UAGACCU (DNA:RNA)
RNA: B1 RNA with A25U, U26A, U27G, G28A, A29C
DNA 1: CAATCTGAATTCCGGTCTCCC
DNA 2: TGGTGGCTACGACGGGATT
B14: GUAGAUA (DNA:RNA)
RNA: B1 RNA with A25G, U27A, C30U, U31A
DNA 1: CAATCTGAATTCCGGTCTCCC
DNA 2: TGGTGGCTACGACGGGATT
B15: CUAGUGG (DNA:RNA)
RNA: B1 RNA with A25C, U27A, A29U, C30G, U31G
DNA 1: CAATCTGAATTCCGGTCTCCC
DNA 2: TGGTGGCTACGACGGGATT
B16: GCGAGGU (DNA:RNA)
RNA: B2 RNA with U25G, C27G, C28A, C31U
DNA 1: CAATCTGAATTCCGGTCTCCC
DNA 2: TGGTGGCTACGACGGGATT
B17: AUAAACG (DNA:RNA)
RNA: B1 RNA with U27A, G28A, U31G
DNA 1: CAATCTGAATTCCGGTCTCCC
DNA 2: TGGTGGCTACGACGGGATT
B18: UUUUCCG (DNA:RNA)
RNA: B1 RNA with A25U, G28U, A29C, U31G
DNA 1: CAATCTGAATTCCGGTCTCCC
DNA 2: TGGTGGCTACGACGGGATT
B19: CAACCCC (DNA:RNA)
RNA: B2 RNA with U25C, C26A, C27A, G29C, G30C
DNA 1: CAATCTGAATTCCGGTCTCCC
DNA 2: TGGTGGCTACGACGGGATT
B20: GACCAGG (DNA:RNA)
RNA: B2 RNA with U25G, C26A, G29A, C31G
DNA 1: CAATCTGAATTCCGGTCTCCC
DNA 2: TGGTGGCTACGACGGGATT

The experiment has as its target T1, RBFOX1 RRM RbFoxmut (Fox-RRM*). Nature of the experiment: EMSA; HiTS-Eq, 1 nM pool, 10 min; buffer printed only for the single-RNA assays: 10 mM Tris pH 7.5, 150 mM NaCl, 3.4 mM EDTA, 0.001% NP-40, 30 C. The note with it: tags: His6 N-terminal (pET28a); label: 5' 32P. In a few lines:
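Purified wild-type or mutant RbFox RRM at increasing concentrations was equilibrated with 1 nM of 5′-radiolabelled RNA carrying 7 randomized nucleotides for 10 min in 50 µL. Unbound RNA was separated by 8% native PAGE and sequenced. Relative association constants came from read-count changes of each RNA species compared with the control reaction, normalised to the cognate motif.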
For the molecule B1, the binding signal is 0.0751 KA relative to UGCAUGU.

As to B2, the binding signal is 0.0709 KA relative to UGCAUGU.

Take B3: the binding signal was 0.0556 KA relative to UGCAUGU.

In the case of B4, the binding signal is 0.55 KA relative to UGCAUGU.

On to B5, for which the binding signal is 0.0998 KA relative to UGCAUGU.

As to B6, the binding signal was 0.14 KA relative to UGCAUGU.

On to B7, for which the binding signal is 0.114 KA relative to UGCAUGU.

Consider B8, for which the binding signal was 0.0611 KA relative to UGCAUGU.

On to B9, for which the binding signal was 0.0556 KA relative to UGCAUGU.

B10: the binding signal is 0.0842 KA relative to UGCAUGU.

Take B11: the binding signal was 0.108 KA relative to UGCAUGU.

In the case of B12, the binding signal was 0.0922 KA relative to UGCAUGU.

For B13, the binding signal is 0.0563 KA relative to UGCAUGU.

For the molecule B14, the binding signal is 0.148 KA relative to UGCAUGU.

With B15, the binding signal is 0.0552 KA relative to UGCAUGU.

Consider B16, for which the binding signal is 0.0815 KA relative to UGCAUGU.

Regarding B17, the binding signal was 0.101 KA relative to UGCAUGU.

As for B18, the binding signal is 0.064 KA relative to UGCAUGU.

Take B19: the binding signal was 0.0776 KA relative to UGCAUGU.

For the molecule B20, the binding signal is 0.0804 KA relative to UGCAUGU.
